The results in this text go back to publication PMC4336329 (PLoS ONE, 2015).

Among all 310,000 compounds or so, about 2,200 (0.71%) showed an effect of 50% or more. Effects have a minus sign here. Some of the results follow.

Chain of human ether-à-go-go-related gene (hERG) potassium channel (Q12809 whole entry, looked up): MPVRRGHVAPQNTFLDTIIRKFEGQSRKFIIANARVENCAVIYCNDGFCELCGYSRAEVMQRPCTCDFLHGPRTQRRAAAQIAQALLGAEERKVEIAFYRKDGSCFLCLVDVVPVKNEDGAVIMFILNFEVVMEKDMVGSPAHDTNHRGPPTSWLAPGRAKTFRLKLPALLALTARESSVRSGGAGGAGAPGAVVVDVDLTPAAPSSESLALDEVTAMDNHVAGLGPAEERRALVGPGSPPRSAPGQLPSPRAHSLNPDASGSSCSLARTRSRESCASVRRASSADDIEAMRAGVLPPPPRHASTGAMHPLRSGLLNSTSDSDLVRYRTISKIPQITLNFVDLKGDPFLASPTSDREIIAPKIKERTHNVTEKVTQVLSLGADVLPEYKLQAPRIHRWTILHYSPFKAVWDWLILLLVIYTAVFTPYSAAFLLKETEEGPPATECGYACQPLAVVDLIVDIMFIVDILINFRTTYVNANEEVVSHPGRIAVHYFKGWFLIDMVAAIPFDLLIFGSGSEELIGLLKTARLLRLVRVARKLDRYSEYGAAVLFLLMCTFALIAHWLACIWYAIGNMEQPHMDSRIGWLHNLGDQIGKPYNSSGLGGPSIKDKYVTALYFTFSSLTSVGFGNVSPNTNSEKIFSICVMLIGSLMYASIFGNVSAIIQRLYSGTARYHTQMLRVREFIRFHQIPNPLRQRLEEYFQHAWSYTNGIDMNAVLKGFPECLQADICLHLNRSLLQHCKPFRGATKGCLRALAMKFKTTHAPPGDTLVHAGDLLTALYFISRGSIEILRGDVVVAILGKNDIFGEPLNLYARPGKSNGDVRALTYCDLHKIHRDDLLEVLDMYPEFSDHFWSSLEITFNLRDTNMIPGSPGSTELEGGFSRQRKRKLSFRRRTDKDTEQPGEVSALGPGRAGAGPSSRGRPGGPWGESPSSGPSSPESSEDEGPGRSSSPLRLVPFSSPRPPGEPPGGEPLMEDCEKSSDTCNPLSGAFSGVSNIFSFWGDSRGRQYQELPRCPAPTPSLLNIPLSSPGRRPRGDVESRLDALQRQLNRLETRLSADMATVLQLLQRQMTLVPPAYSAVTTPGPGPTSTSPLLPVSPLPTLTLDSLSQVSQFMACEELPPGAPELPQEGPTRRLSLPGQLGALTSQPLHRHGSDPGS

This experiment addresses human ether-à-go-go-related gene (hERG) potassium channel (human, UniProt Q12809). The experiment can be described thus: primary screen, population patch clamp on CHO cells stably expressing hERG.
For the molecule `COCCn1cc(C(=S)N2CCCCC2)c2ccccc21`, the “hERG current change (%, negative = inhibition) at 1uM” value is 11.9%.
Consider `Cc1ccc[n+](CC(=O)Nc2ccc(C)c(C)c2)c1.[Cl-]`, for which the “hERG current change (%, negative = inhibition) at 1uM” value was determined as 14.5%.
With `COc1ccccc1NC(=O)c1ccccc1-c1ccccc1C(=O)O`, the “hERG current change (%, negative = inhibition) at 1uM” value came out at 9.09%.
For the molecule `CN(C[C@H](Cc1ccccc1)N(C[C@H](Cc1cccc2ccccc12)N(CCc1ccccc1)N=O)N=O)N=O.[Na+]`, the “hERG current change (%, negative = inhibition) at 1uM” value is 10%.
Consider `O=C(Nc1nccs1)C12CC3CC(C1)CC(C(=O)Nc1nccs1)(C3)C2`, for which the “hERG current change (%, negative = inhibition) at 1uM” value was determined as 0.238%.
With `Cc1nc2sc(-c3ccccc3)nn2c(=O)c1Br` the figure was 9.37%; with `COc1cc(CN2CCN(c3cc(C)ccc3C)CC2)ccc1O`, 3.43%.
On to `FC(F)(F)c1ccc(C2[C@H]3CN(Cc4ccc(-c5ccccc5)cc4)[C@H](c4ccccc4)C34CC2(c2cccnc2)C4)cc1` (stereo partly drawn), for which the “hERG current change (%, negative = inhibition) at 1uM” value amounted to 12.9%.
Take `COc1ccc(-n2c(-c3ccc(C)cc3)n[nH]c2=S)cc1`: the “hERG current change (%, negative = inhibition) at 1uM” value came out at 14.5%.
With `COc1ccc2c(Cl)c(C(=O)NCc3ccco3)sc2c1` the figure was 0.841%.
Take `O=C(O)c1cc2c(cc1NC(=O)c1c(F)cccc1Cl)OCCCO2`: the “hERG current change (%, negative = inhibition) at 1uM” value was found to be 7.51%.
With `CCOC(=O)c1oc2ccc(OC)cc2c1NC(=O)CN1CCN(C)CC1.Cl` the figure was 6.24%; with `O=C(CN1CCN(Cc2ccccc2)CC1)Nc1ccc([N+](=O)[O-])cc1C(=O)Nc1ccccc1F`, -56.8%; with `CC(=O)NC1C(=O)N=C(SC(C)C(=O)Nc2cccc(Cl)c2)NC1=O` (stereo not drawn), 19.7%.
With `CC(C)N(C)C(=O)CCc1nnc(CCc2c[nH]c3ccccc23)o1`, the “hERG current change (%, negative = inhibition) at 1uM” value was 8.81%.
Turning to `O=C(COC(=O)c1ccc(F)cc1F)Nc1ncccn1`, the “hERG current change (%, negative = inhibition) at 1uM” value is -2.23%.
`Cn1c(-c2ccc(-c3ccccc3)cc2)c[nH]c1=S`: the “hERG current change (%, negative = inhibition) at 1uM” value was 6.4%.
As to `CC(C)=N/N=C(\c1cccc([N+](=O)[O-])c1)C12CN3CN(CN(C3)C1)C2`, the “hERG current change (%, negative = inhibition) at 1uM” value came to 13.9%.
With `Cc1ccc(S(=O)(=O)N2CC(O)C[C@H]2C(=O)OCC(=O)c2ccccc2)cc1` (stereo partly drawn), the “hERG current change (%, negative = inhibition) at 1uM” value was determined as 13.4%.
For `CCC(C)NC(=O)c1cc(-c2ccc(OC)cc2)on1` (stereo not drawn), the “hERG current change (%, negative = inhibition) at 1uM” value was -1.11%.
Regarding `CC(=O)Nc1ccc(NC(C)=O)c(NC2OCC(O)C(O)C2O)c1` (stereo not drawn), the “hERG current change (%, negative = inhibition) at 1uM” value was 14.1%.
As for `COC(=O)CSc1cc(C)nc(NC(C)=O)n1`, the figure is 6.03%.
For `O=C1C(Cl)=C(NS(=O)(=O)c2ccc([N+](=O)[O-])cc2)C(=O)c2ccccc21`, the “hERG current change (%, negative = inhibition) at 1uM” value stood at 12.7%.
Regarding `CNC(=S)N/N=C/C1=CCC2CC1C2(C)C` (stereo not drawn), the “hERG current change (%, negative = inhibition) at 1uM” value is given as 7.8%.
Turning to `Cc1cc[n+](-c2[nH]c(=O)sc2/C=N/NC(=O)c2ccccc2[O-])cc1C`, the “hERG current change (%, negative = inhibition) at 1uM” value is 2.09%.
As for `O=C(CC1OC(=O)c2ccccc21)Nc1ccc(Cl)c(S(=O)(=O)N2CCCCC2)c1` (stereo not drawn), the figure is 16.6%.
For `COC(=O)c1ccc(-c2ccc(C(c3c(C)[nH][nH]c3=O)c3c(C)[nH][nH]c3=O)o2)cc1`, the “hERG current change (%, negative = inhibition) at 1uM” value was 28.1%.
Regarding `Cc1cc2c(cc1S(=O)(=O)NCC(C)c1ccccc1)n(C)c(=O)c(=O)n2C` (stereo not drawn), the “hERG current change (%, negative = inhibition) at 1uM” value is -7.07%.
Turning to `COCC(C)NC(=O)NC(=O)c1ccc(Cl)cc1` (stereo not drawn), the “hERG current change (%, negative = inhibition) at 1uM” value is recorded as 4.56%.
As for `Cc1ccc(-n2nc(-c3cccs3)cc2C(=O)NCC2CCCO2)c(C)c1` (stereo not drawn), the figure is 10.7%.
On to `COc1ccc(Nc2nnc(-c3ccc(C(=O)NCCO)cc3)c3ccccc23)cc1`, for which the “hERG current change (%, negative = inhibition) at 1uM” value is listed as 16.3%.
As to `O=S(=O)(c1ccc(NC(=S)Nc2ccc(OC(F)F)cc2)cc1)N1CCOCC1`, the “hERG current change (%, negative = inhibition) at 1uM” value was -2.23%.
Take `O=C(CSc1nccn1-c1ccccc1)NCc1ccc(F)cc1`: the “hERG current change (%, negative = inhibition) at 1uM” value turned out to be 5.89%.
On to `CCCC1CC(CCc2ccccc2)OS(=O)(=O)N1` (stereo not drawn), for which the “hERG current change (%, negative = inhibition) at 1uM” value is reported as 0.614%.
For `COc1ccc(-c2cn3ccc(C)cc3n2)cc1`, the “hERG current change (%, negative = inhibition) at 1uM” value turned out to be 5.08%.
With `C(=N\N=C\c1ccncc1)/c1ccncc1` the figure was 5.24%; with `CC1Cc2cc(S(=O)(=O)NCc3ccccc3)ccc2N1C(=O)C1CCC1` (stereo not drawn), 17.1%.
With `COc1cccc(C(=O)N(Cc2ccc(N(C)C)cc2)C2CCS(=O)(=O)C2)c1` (stereo not drawn) the figure was 0.397%; with `CCCCSC1=C(C#N)C(c2ccccc2C)CC(=O)N1` (stereo not drawn), 8.92%.
With `COc1ccc(C(=O)Nc2nc(-c3ccc([N+](=O)[O-])cc3)c(-c3ccccc3)s2)cc1` the figure was 9.03%.
For the molecule `CC1CCCC(C)N1C(=O)COc1ccc([N+](=O)[O-])cc1Cl` (stereo not drawn), the “hERG current change (%, negative = inhibition) at 1uM” value is -0.86%.
Consider `CC(C)(C)C1CCC(=NNC(=O)C2COc3ccccc3O2)CC1` (stereo not drawn), for which the “hERG current change (%, negative = inhibition) at 1uM” value is listed as 7.83%.
Consider `CC(=O)c1sc(NC(=O)CCS(=O)(=O)c2ccc(Cl)cc2)nc1C`, for which the “hERG current change (%, negative = inhibition) at 1uM” value amounted to 2.86%.
With `O=C(CSc1nncn1-c1ccccc1)Nc1ccccc1`, the “hERG current change (%, negative = inhibition) at 1uM” value is given as 11.3%.
As for `O=C(O)COc1ccc(/C=C/C(=O)c2ccc3ccccc3c2)cc1`, the “hERG current change (%, negative = inhibition) at 1uM” value came to 9.88%.
